Measurements as given in the supplement of paper PMC4967469.
By IC50 is meant the dose at which the fit gives 50% viability; a fit beyond the top or the lowest dose is shown as a bound at that dose. AUC is the area under the same curve over the 256-fold range up to the top dose, as a fraction; values near 1 show little effect. For part of these data: Any top dose called inferred was calculated from the reported fits. For part of these data: An entry number marks a drug with two screens in the source, which often give different values.

How the values were obtained:
Experiment in all cases: Viability of human cancer cell lines after 72 h of drug (GDSC screen)
Docetaxel = compound: CC(=O)O[C@@]12CO[C@@H]1C[C@H](O)[C@@]1(C)C(=O)[C@H](O)C3=C(C)[C@@H](OC(=O)[C@H](O)[C@@H](NC(=O)OC(C)(C)C)c4ccccc4)C[C@@](O)([C@@H](OC(=O)c4ccccc4)[C@H]21)C3(C)C [Docetaxel]; details: top dose 0.0125 µM
Procedure: (§1)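 Human cancer cell lines in 384-well plates, medium with 10% serum, drug for 72 h over a 256-fold dose range (nine 2-fold or five 4-fold steps up to the top dose). Adherent lines were fixed and stained with the nucleic acid dye Syto60, suspension lines read with resazurin; signal relative to control wells, capped at 0 and 100%. One two-parameter sigmoid per drug and line, fitted in a mixed model over all curves with the slope shared within a line.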

AMG-706 = compound: CC1(C)CNc2cc(NC(=O)c3cccnc3NCc3ccncc3)ccc21 [AMG-706]; details: top dose 2 µM; top dose inferred
Procedure: as §1

Cyclopamine = compound: CC1=C2C[C@H]3[C@@H](CC=C4C[C@@H](O)CC[C@@]43C)[C@@H]2CC[C@]12O[C@@H]1C[C@H](C)CN[C@H]1[C@H]2C [Cyclopamine]; details: top dose 16 µM; top dose inferred
Procedure: as §1

JNK Inhibitor VIII = compound: CCOc1nc(NC(=O)Cc2cc(OC)ccc2OC)cc(N)c1C#N [JNK Inhibitor VIII]; details: top dose 10 µM; top dose inferred
Procedure: as §1

NSC-207895 = compound: CN1CCN(c2ccc([N+](=O)[O-])c3no[n+]([O-])c23)CC1 [NSC-207895]; details: top dose 20 µM; top dose inferred
Procedure: as §1

FTI-277 = compound: COC(=O)[C@H](CCSC)NC(=O)c1ccc(NC[C@@H](N)CS)cc1-c1ccccc1 [FTI-277]; details: top dose 1.024 µM; top dose inferred
Procedure: as §1

YM155 = compound: COCC[n+]1c2c(n(Cc3cnccn3)c1C)C(=O)c1ccccc1C2=O [YM155]; details: top dose 5.12 µM
Procedure: as §1

OSI-906 = compound: C[C@]1(O)C[C@@H](c2nc(-c3ccc4ccc(-c5ccccc5)nc4c3)c3c(N)nccn32)C1 [OSI-906]; details: top dose 2.56 µM; top dose inferred
Procedure: as §1

PHA-665752 = compound: Cc1[nH]c(/C=C2\C(=O)Nc3ccc(S(=O)(=O)Cc4c(Cl)cccc4Cl)cc32)c(C)c1C(=O)N1CCC[C@@H]1CN1CCCC1 [PHA-665752]; details: top dose 2 µM
Procedure: as §1

SB-715992 = compound: Cc1ccc(C(=O)N(CCCN)[C@@H](c2nc3cc(Cl)ccc3c(=O)n2Cc2ccccc2)C(C)C)cc1 [SB-715992]; details: top dose 0.128 µM; top dose inferred
Procedure: as §1

JQ1 = compound: Cc1sc2c(c1C)C(c1ccc(Cl)cc1)=N[C@@H](CC(=O)OC(C)(C)C)c1nnc(C)n1-2 [JQ1]
Procedure: as §1

Belinostat = compound: O=C(/C=C/c1cccc(S(=O)(=O)Nc2ccccc2)c1)NO [Belinostat]; details: top dose 20 µM; top dose inferred
Procedure: as §1

CGP-60474 = compound: OCCCNc1cc(-c2ccnc(Nc3cccc(Cl)c3)n2)ccn1 [CGP-60474]; details: top dose 0.256 µM; top dose inferred
Procedure: as §1

JNJ-26854165 = compound: c1ccc2c(CCNc3ccc(Nc4ccncc4)cc3)c[nH]c2c1 [JNJ-26854165]; details: top dose 10 µM
Procedure: as §1

[1] = top dose 1 µM, screen: GDSC drug entry 1218, top dose inferred
[2] = top dose 2.56 µM, screen: GDSC drug entry 163

## D-502MG (glioma, adherent)
Docetaxel
  AUC: 0.71
  IC50: 4.3 nM
AMG-706
  AUC: 0.954
  IC50: > 2000 nM
Cyclopamine
  AUC: 0.92
  IC50: > 16000 nM
JNK Inhibitor VIII
  AUC: 0.958
  IC50: > 10000 nM
NSC-207895
  AUC: 0.965
  IC50: > 20000 nM
FTI-277
  AUC: 0.974
  IC50: > 1020 nM
YM155
  AUC: 0.254
  IC50: 41.6 nM
OSI-906
  AUC: 0.97
  IC50: > 2560 nM
PHA-665752
  AUC: 0.957
  IC50: > 2000 nM
SB-715992
  AUC: 0.944
  IC50: > 128 nM
JQ1; [1]
  AUC: 0.835
  IC50: > 1000 nM
JQ1; [2]
  AUC: 0.918
  IC50: > 2560 nM
Belinostat
  AUC: 0.534
  IC50: 1620 nM
CGP-60474
  AUC: 0.952
  IC50: > 256 nM
JNJ-26854165
  AUC: 0.887
  IC50: > 10000 nM

## NB7 (neuroblastoma, adherent)
AMG-706
  AUC: 0.983
  IC50: > 2000 nM
Cyclopamine
  AUC: 0.976
  IC50: > 16000 nM
JNK Inhibitor VIII
  AUC: 0.986
  IC50: > 10000 nM
NSC-207895
  AUC: 0.364
  IC50: 517 nM
FTI-277
  AUC: 0.985
  IC50: > 1020 nM
YM155
  AUC: 0.029
  IC50: < 20 nM
OSI-906
  AUC: 0.974
  IC50: > 2560 nM
PHA-665752
  AUC: 0.975
  IC50: > 2000 nM
SB-715992
  AUC: 0.835
  IC50: 89.4 nM
JQ1; [1]
  AUC: 0.905
  IC50: > 1000 nM
JQ1; [2]
  AUC: 0.606
  IC50: 318 nM
Belinostat
  AUC: 0.364
  IC50: 516 nM
CGP-60474
  AUC: 0.961
  IC50: > 256 nM
JNJ-26854165
  AUC: 0.935
  IC50: > 10000 nM

## D-247MG (glioma, adherent)
Docetaxel
  AUC: 0.642
  IC50: 2.24 nM
AMG-706
  AUC: 0.932
  IC50: > 2000 nM
Cyclopamine
  AUC: 0.876
  IC50: > 16000 nM
JNK Inhibitor VIII
  AUC: 0.978
  IC50: > 10000 nM
NSC-207895
  AUC: 0.949
  IC50: > 20000 nM
FTI-277
  AUC: 0.974
  IC50: > 1020 nM
YM155
  AUC: 0.288
  IC50: 63.8 nM
PHA-665752
  AUC: 0.975
  IC50: > 2000 nM
SB-715992
  AUC: 0.859
  IC50: > 128 nM
JQ1; [1]
  AUC: 0.977
  IC50: > 1000 nM
JQ1; [2]
  AUC: 0.678
  IC50: 608 nM
Belinostat
  AUC: 0.444
  IC50: 830 nM
CGP-60474
  AUC: 0.877
  IC50: > 256 nM
JNJ-26854165
  AUC: 0.845
  IC50: > 10000 nM

## CGTH-W-1 (thyroid, adherent)
AMG-706
  AUC: 0.563
  IC50: 186 nM
Cyclopamine
  AUC: 0.986
  IC50: > 16000 nM
JNK Inhibitor VIII
  AUC: 0.963
  IC50: > 10000 nM
NSC-207895
  AUC: 0.923
  IC50: > 20000 nM
FTI-277
  AUC: 0.887
  IC50: > 1020 nM
YM155
  AUC: 0.062
  IC50: < 20 nM
OSI-906
  AUC: 0.986
  IC50: > 2560 nM
PHA-665752
  AUC: 0.975
  IC50: > 2000 nM
SB-715992
  AUC: 0.96
  IC50: > 128 nM
JQ1; [1]
  AUC: 0.971
  IC50: > 1000 nM
JQ1; [2]
  AUC: 0.421
  IC50: 97.2 nM
Belinostat
  AUC: 0.552
  IC50: 1730 nM
CGP-60474
  AUC: 0.73
  IC50: 71.9 nM
JNJ-26854165
  AUC: 0.892
  IC50: > 10000 nM
